Article PMC12820563, “FoxP3 forms a head-to-head dimer in vivo and stabilizes its multimerization on adjacent microsatellites”
The list shows a part of the results.

Target: T1, MBP-FoxP1dN (Mus musculus, UniProt P58462 326-579)
T1 sequence: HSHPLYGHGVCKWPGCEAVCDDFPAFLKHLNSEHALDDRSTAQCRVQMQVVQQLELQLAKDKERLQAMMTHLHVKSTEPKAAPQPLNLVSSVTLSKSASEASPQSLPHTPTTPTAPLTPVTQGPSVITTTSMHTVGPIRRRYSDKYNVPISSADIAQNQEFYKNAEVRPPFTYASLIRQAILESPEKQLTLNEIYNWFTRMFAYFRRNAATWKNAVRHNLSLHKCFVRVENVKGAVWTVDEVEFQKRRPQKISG
Experiment: PD-seq (MBP pull-down with sequencing); 20 mM Tris-HCl pH 7.5, 100 mM NaCl, 1.5 mM MgCl2, 0.4 uM protein, 0.1 uM dsDNA library, 30 min, room temperature, amylose pull-down; high values mean tight binding
Conditions: protein: recombinant; tags: His6-MBP; chain copies: 2; dsDNA, one strand shown
Method in brief: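 Binding is reads-per-million enrichment of pull-down over input, with replicates pooled. It comes from 30 min room-temperature incubation in Tris pH 7.5 buffer with NaCl and MgCl2 of 0.4 µM His6-MBP-tagged, N-terminally truncated mouse FoxP3 or FoxP1 fragment from E. coli with 0.1 µM Klenow-filled degenerate double-stranded DNA library, followed by amylose resin capture, three washes and Illumina sequencing of the released DNA.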

| Sequence | binding signal |
| --- | --- |
| GATGATTGTTCTCCCAGCTGATGAATTGACCGCATCGAGTAAACAAATTTTCCTAATCTTTCTGTTCAAGCGCCATCTAC | 1.2 RPM ratio (pull-down/input) |
| GATGATTGTTCTCCCAGCTGATGAATTAATAGGTTCGAGTAAACAAATTTTCCTAATCTTTCTGTTCAAGCGCCATCTAC | 0.996 RPM ratio (pull-down/input) |
| GATGATTGTTCTCCCAGCTGATGAATTGCCCCCCTCGAGTAAACAAATTTTCCTAATCTTTCTGTTCAAGCGCCATCTAC | 0.882 RPM ratio (pull-down/input) |
| GATGATTGTTCTCCCAGCTGATGAATTAATGTCGTCGAGTAAACAAATTTTCCTAATCTTTCTGTTCAAGCGCCATCTAC | 1.06 RPM ratio (pull-down/input) |
| GATGATTGTTCTCCCAGCTGATGAATTATATCCGTCGAGTAAACAAATTTTCCTAATCTTTCTGTTCAAGCGCCATCTAC | 0.992 RPM ratio (pull-down/input) |
| GATGATTGTTCTCCCAGCTGATGAATTGATAAGATCGAGTAAACAAATTTTCCTAATCTTTCTGTTCAAGCGCCATCTAC | 1.01 RPM ratio (pull-down/input) |
| GATGATTGTTCTCCCAGCTGATGAATTTTGTCATTCGAGTAAACAAATTTTCCTAATCTTTCTGTTCAAGCGCCATCTAC | 1.22 RPM ratio (pull-down/input) |
| GATGATTGTTCTCCCAGCTGATGAATTCTCCAGTTCGAGTAAACAAATTTTCCTAATCTTTCTGTTCAAGCGCCATCTAC | 0.876 RPM ratio (pull-down/input) |
| GATGATTGTTCTCCCAGCTGATGAATTTGCAGATTCGAGTAAACAAATTTTCCTAATCTTTCTGTTCAAGCGCCATCTAC | 0.98 RPM ratio (pull-down/input) |
| GATGATTGTTCTCCCAGCTGATGAATTCCTTCGTTCGAGTAAACAAATTTTCCTAATCTTTCTGTTCAAGCGCCATCTAC | 0.849 RPM ratio (pull-down/input) |
| GATGATTGTTCTCCCAGCTGATGAATTATATGCTTCGAGTAAACAAATTTTCCTAATCTTTCTGTTCAAGCGCCATCTAC | 1.04 RPM ratio (pull-down/input) |
| GATGATTGTTCTCCCAGCTGATGAATTTGACAAATCGAGTAAACAAATTTTCCTAATCTTTCTGTTCAAGCGCCATCTAC | 1.07 RPM ratio (pull-down/input) |
| GATGATTGTTCTCCCAGCTGATGAATTATCGTTCTCGAGTAAACAAATTTTCCTAATCTTTCTGTTCAAGCGCCATCTAC | 0.944 RPM ratio (pull-down/input) |
| GATGATTGTTCTCCCAGCTGATGAATTGATAATTTCGAGTAAACAAATTTTCCTAATCTTTCTGTTCAAGCGCCATCTAC | 1.09 RPM ratio (pull-down/input) |
| GATGATTGTTCTCCCAGCTGATGAATTTGTCTGGTCGAGTAAACAAATTTTCCTAATCTTTCTGTTCAAGCGCCATCTAC | 0.964 RPM ratio (pull-down/input) |
| GATGATTGTTCTCCCAGCTGATGAATTGGCAAACTCGAGTAAACAAATTTTCCTAATCTTTCTGTTCAAGCGCCATCTAC | 0.927 RPM ratio (pull-down/input) |

| Sequence | binding signal |
| --- | --- |
| GATGATTGTTCTCCCAGCTGATGAATTGATGCGTTCGAGTAAACAAATTTTCCTAATCTTTCTGTTCAAGCGCCATCTAC | 1.41 RPM ratio (pull-down/input) |
| GATGATTGTTCTCCCAGCTGATGAATTACGAGAATCGAGTAAACAAATTTTCCTAATCTTTCTGTTCAAGCGCCATCTAC | 1.08 RPM ratio (pull-down/input) |
| GATGATTGTTCTCCCAGCTGATGAATTTGCCTAGTCGAGTAAACAAATTTTCCTAATCTTTCTGTTCAAGCGCCATCTAC | 0.83 RPM ratio (pull-down/input) |
| GATGATTGTTCTCCCAGCTGATGAATTGCTGAGATCGAGTAAACAAATTTTCCTAATCTTTCTGTTCAAGCGCCATCTAC | 0.969 RPM ratio (pull-down/input) |
| GATGATTGTTCTCCCAGCTGATGAATTCGGTTCCTCGAGTAAACAAATTTTCCTAATCTTTCTGTTCAAGCGCCATCTAC | 0.807 RPM ratio (pull-down/input) |
| GATGATTGTTCTCCCAGCTGATGAATTTTTAACCTCGAGTAAACAAATTTTCCTAATCTTTCTGTTCAAGCGCCATCTAC | 0.865 RPM ratio (pull-down/input) |
| GATGATTGTTCTCCCAGCTGATGAATTGGTGCGCTCGAGTAAACAAATTTTCCTAATCTTTCTGTTCAAGCGCCATCTAC | 0.923 RPM ratio (pull-down/input) |
| GATGATTGTTCTCCCAGCTGATGAATTTCGGGGATCGAGTAAACAAATTTTCCTAATCTTTCTGTTCAAGCGCCATCTAC | 0.808 RPM ratio (pull-down/input) |
| GATGATTGTTCTCCCAGCTGATGAATTCTTCCACTCGAGTAAACAAATTTTCCTAATCTTTCTGTTCAAGCGCCATCTAC | 0.895 RPM ratio (pull-down/input) |
| GATGATTGTTCTCCCAGCTGATGAATTTCTGTGATCGAGTAAACAAATTTTCCTAATCTTTCTGTTCAAGCGCCATCTAC | 1.02 RPM ratio (pull-down/input) |
| GATGATTGTTCTCCCAGCTGATGAATTCCCCTGGTCGAGTAAACAAATTTTCCTAATCTTTCTGTTCAAGCGCCATCTAC | 0.72 RPM ratio (pull-down/input) |
| GATGATTGTTCTCCCAGCTGATGAATTCCCTGGGTCGAGTAAACAAATTTTCCTAATCTTTCTGTTCAAGCGCCATCTAC | 0.764 RPM ratio (pull-down/input) |
| GATGATTGTTCTCCCAGCTGATGAATTACAGTGCTCGAGTAAACAAATTTTCCTAATCTTTCTGTTCAAGCGCCATCTAC | 1 RPM ratio (pull-down/input) |
| GATGATTGTTCTCCCAGCTGATGAATTACAGTGGTCGAGTAAACAAATTTTCCTAATCTTTCTGTTCAAGCGCCATCTAC | 0.994 RPM ratio (pull-down/input) |
| GATGATTGTTCTCCCAGCTGATGAATTTCTACCGTCGAGTAAACAAATTTTCCTAATCTTTCTGTTCAAGCGCCATCTAC | 0.893 RPM ratio (pull-down/input) |
| GATGATTGTTCTCCCAGCTGATGAATTACGCATGTCGAGTAAACAAATTTTCCTAATCTTTCTGTTCAAGCGCCATCTAC | 1.05 RPM ratio (pull-down/input) |
